Measured values: the supplement of paper PMC12632987
The full ranking holds about 4,500 sequences; the median of “median log2 fold change of GCK-ALFA target abundance (FLAG IP / Myc IP barcode read proportion)” is about 0.078, and the lowest 2% start at about -0.6. Some of the results follow.

B1: GBRAP_128_3212 (protein)
chain: SVEEIKEKVRKLLEEIKEANKEEAKKIAEELAKLILNSSVEEAEAAKEVIEELAPELSEEDLEILMEAFEKEARKTSDERSLVLLEISIILGSEILEKEE
B2: GBRAP_128_3562 (protein)
chain: SVEEAVAQARELLEEIKASDEERAREAARRLAELLAAADPETREAIVAEILERLPELSVEHLEVLADVFREARPSADPATAEALAEIEVEALNEAEEKEE
B3: GBRAP_52_6243 (protein)
chain: MEEKMKKDAEELYKLVLEGKEEEAEKLAKEIAENYNEEELEIFIEKLAEIAKKARKEDIEKVWKLTEIVAKALEEAGKPEILVDLLESKVAAALYEVELK
B4: GBRAP_52_6106 (protein)
chain: ARARVRALVEEALALVRAGREEEARALLEAFARTANEEELELFAEALAELAREAAPEDLDAVWRLAEMAAEALEAAGWPDVLVDDLLARVAAALYERELK
B5: GBRAP_11_2811 (protein)
chain: MTPEKKEIIELLREAEELAERLLEEGVDDEELLERLRELARRVLELVKKHLDEADTRDAEALLETVEEAERDPERREEYLRNAAAGARTLRANVEEEAEE
B6: GBRAP_11_2680 (protein)
chain: KLEALKQAAELARQAAELAQALLERGPADAELLAALQATVDQLAALVKANLDEAEKTLVAILRDELAAAQADPANAEAHLQNALAAARVLHYNLEEEIDE
B7: GBRAP_184_5073 (protein)
chain: EVKEATIAVTDVAEARAKVAALAAEVADFKGDLVVSLEMPEFDLEIARAVLDGLAAILAAGRARRVTLGIDAEATEEQVDEAVELADRLGVRLVLPLKEE
B8: GBRAP_39_5666 (protein)
chain: EEEEENEDVVSYLEAVAAGYLYETGISLEEAFEEAKEILKKYAEEHPELKELIEKLIELAEKKGDEAKLALIGIAVKIKEGTPIEEIKEDIEKVIKYFES
B9: GBRAP_11_2742 (protein)
chain: KKEKLEEIAKLAEEAAETVAKLIATGTDDAELRAKAAKLLAELAKLVKEHGDEFLKELAAAAAADFAEALADPANATAHLQNALAALRVLAGQVLLEIEE
B10: GBRAP_160_4760 (protein)
chain: KEKLKKLKEEVEEIFKEHLEMLKEVKPEEAPTVVRGAMGEVIMEVMSSEAASDELEEKIGEIADEAEEEAEANKDAPVEFHIKILEEARKKILSLIEEEI
B11: GBRAP_128_3511 (protein)
chain: SLEEAVARTRELMRAIAEADPETAAELTGELVDLINSVDDETAEAIAEEAIRLLPELSAEKLDVVADTLLERRPEVDEYKANLLADIAVEALNRREELDE
B12: GBRAP_52_5848 (protein)
chain: MEEEARKIAKELVELKLEGKEEELKKKIEEIVKTLSPEEVKLILKELARLAKEADEEEAEAILEVAELLADEAEKEGFDEDELSYLLAEVAAAVYKRLQK
B13: GBRAP_166_4981 (protein)
chain: MEEERVEEAKEYIDEKAEEAKEANYEEKLELLAEVAERIRELKEEGLSEEKLKELIRYTLEKFSKVGISLSDVEGALSIIAELDEEEVELLLEARKEVEA
B14: GBRAP_52_6285 (protein)
chain: SREEVEATAEEIVALVKEGKLEEALKLAREAVKRFSLEEVLELGELLVKRIATLKPEQIDLALEVVEELAEGLEEEFGAEEEADIIEARAAAAAYQALQA
B15: GBRAP_160_4320 (protein)
chain: SAELKKLIKEIEEITEEAIKLIEGESPEERKTIVKVALGEILLLAIENEEISDELEDKIAEIADAAEEELDANPDLSEEEVKELLRRATEEIIKLIKESE
B16: GBRAP_160_3977 (protein)
chain: MEEVEELKKEIQEIFDQAIADIEGQSFEERLAIIRVAWGEVILLVEENPLMSDETEDKVAAIGDATVAHLEANPGLSEAEIKALIQQAEKEIKEIIEKDA
B17: GBRAP_52_6336 (protein)
chain: SRERIEEAAERIAEAVAAGNLDEAVALTRELAERESREEVREALLRTAELIAERLPDREDLAWEAIFRLADVVEEVLGDEELADELEAHMARLLVERRQA
B18: GBRAP_83_6917 (protein)
chain: NETIVVAGPADHIEELVEIAIDLHKEEGKKVVVEIIATPEQFEKVLEGVKKLAESKIDVEVVVLLEGATPEQAEKLKEEMNKILKEAGSNMKIEVLLDDE
B19: GBRAP_160_4380 (protein)
chain: SEELKELKEEVEELKEEFREEAKDLSPEEVRTLAIGVLSEIAAMVWSNEAVSEETKDKIMEIIDEAIEEIRENEDASPEEIVEIVERAMEEIIKLIEEEE
B20: GBRAP_184_5086 (protein)
chain: TVLERTIEAETVEEAIEKLKAVMAEAGAAKADLTVLVDVKGLDVEGAIALIRVAGEQKAALGIPRVTLGFTEAFTEEEIDRLLAEADAAGVRVVLPIKEE
B21: GBRAP_160_4327 (protein)
chain: SESVEELIKEIEEEFEELKKEIEGLSIEQVKVLLRGTFGEILMLLSENPDVSDEALDRVEEVEDEALATLEENPDLTLEERKELIDEAREKVIEIIKELA
B22: GBRAP_11_2830 (protein)
chain: EKEKLKRLAELAEEVAEKTEKLIKSGNPTKEELEELLELVKKLLEETKKYGDEDEIKLAEIALENVEEAIKNPENQKFYLENALAALKTLAGLYLLKLEE
B23: GBRAP_166_4880 (protein)
chain: SEEELKEKLLKELKELIKEASKKDPIEQIDLYIKIAELVKEAREQGLSEEKLLEIIKEALEETHKAGLNPKQLLGVLIDIAELSEEEIDELEEHIEELEA
B24: GBRAP_184_5158 (protein)
chain: KVLERTIEADNLEELKKKLKEIKEEAAKTKADLIVVLNLKELTKEMLETALSTLGEIKKEGLAPSITLLIENEMNDEQIDFALKLADEAGVTLVVAIPDE
B25: GBRAP_125_3149 (protein)
chain: MKEKALELAEALAKAFGFSEEEIEELRKIALASDPEQTVVAVLLAGGFEEAAELAEKVLDKLTEEEFEELIKLAEEGKDKSKEEFEKELLELLKELLKKL
B26: GBRAP_11_2715 (protein)
chain: KKEKLEKLAKEAEKLAKKVKKLIEEGPKLEELKKLKKEVAKLAKEAKKEGVDPAIVKTLEIAAEDLKEAIENPETVLEHLKNAKAALEVAAGDLLLEAEE
B27: GBRAP_39_5688 (protein)
chain: EKEEENENVVSYLEGVAAKYLYTTGISLEEAIERAKKILEKYAKENPELKELVEELIEIAEEKGEEAKLVLIGIAVEIEKGTPKEEIKEKIEKAIEYFKS
B28: GBRAP_9_7151 (protein)
chain: MEELFKKVKEILEDAFEEVKEVVPEEVKPIVDEKREEVLKRLEELAKDPNVTKEELKEEAKELVDEFEEAIKEKVDEETAKMVEAIALTAKLEIEEVAEE
B29: GBRAP_128_3299 (protein)
chain: MPEEVRRRVEELVERIRTGDPEERRAAAEELARLMREVDLETAEAIAEIIEEAIPELSKEALEILAEVLDAARPELDPEKRALAADVASEALLEAEKLEE

target: GABARAP, O95166; experiment: median log2 fold change of GCK-ALFA target abundance (FLAG IP / Myc IP barcode read proportion) (log2 ratio); each designed protein is fused to an ALFA-tag nanobody in HEK293 cells to bring the named protein to FLAG-tagged glucokinase (GCK); Myc marks an untargeted standard; higher = target protein stabilised (more abundant); details: target protein: 3xFLAG-MCP-GCK-ALFA reporter; HEK293 landing pad (RPLP)
In short: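 An ALFA-nanobody-fused binder library was recombined into HEK293 landing-pad cells and induced with 2 μg mL^−1 doxycycline. Cells were transfected with a plasmid expressing a FLAG-tagged target and a Myc-tagged standard. After 48 h, lysates underwent anti-FLAG and anti-Myc immunoprecipitation, and circular RNA barcodes were reverse transcribed, amplified and sequenced. Target abundance is the per-binder median log2 ratio of FLAG to Myc barcode read proportions. Barcodes needed ≥10^−7 proportion in both replicates, binders ≥3 barcodes per replicate, and a 10^−6 pseudocount was added; the two replicates were pooled.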

Chain of GABARAP, O95166 (O95166 whole entry, the tested form may be a part): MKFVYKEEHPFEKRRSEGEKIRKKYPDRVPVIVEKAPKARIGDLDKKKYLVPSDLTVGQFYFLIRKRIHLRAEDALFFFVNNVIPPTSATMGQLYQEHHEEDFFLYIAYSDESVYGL

Binder	median log2 fold change
B1	-0.568
B2	0.12
B3	0.397
B4	-0.266
B5	0.243
B6	0.145
B7	0.0205
B8	0.0283
B9	0.18
B10	-0.185
B11	-0.25
B12	0.255
B13	0.222
B14	-0.541
B15	-0.308
B16	0.135
B17	-0.102
B18	-0.0295
B19	-0.00161
B20	0.0902
B21	-0.111
B22	0.309
B23	0.225
B24	-0.0197
B25	0.0285
B26	0.234
B27	0.213
B28	0.225
B29	0.0976
